The supplement of paper PMC12217912
The other results are listed elsewhere or left out. The full chains were built here from the parent and the listed change. Inactive controls read about 0.05.

B1: TEV protease; numbered along this chain (parent)
chain: MGESLFKGPRDYNPISSSICHLTNESDGHTTSLYGIGFGPFIITNKHLFRRNNGTLVVQSLHGVFKVKDTTTLQQHLVDGRDMIIIRMPKDFPPFPQKLKFREPQREERICLVTTNFQTKSMSSMVSDTSCTFPSGDGIFWKHWIQTKDGQCGSPLVSTRDGFIVGIHSASNFTNTNNYFTSVPKNFMELLTNQEAQQWVSGWRLNADSVLWGGHKVFMVKPEEPFQPVKEATQL

Variants of: B1
Assay: raw area under fraction-flipped curve 0-4 h after induction (AUC4h, not background-subtracted), DNA-recorder readout of cleavage of the substrate (dimensionless); higher = more cleavage of the substrate by the protease variant
Conditions: temperature: 34 °C; time window: 0-4 h after rhamnose induction
Protocol: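 In vivo DNA recorder in E. coli TOP10(DE3) ΔrhaA at 34 °C. Each TEVp single-site mutant (parent TEVp 0) is paired with a single-site variant of the 7-mer TEVs (canonical ENLYFQ|S). The substrate sits between flexible linkers in a Bxb1-sfGFP-TEVs-SsrA fusion, so cleavage stabilises Bxb1 and speeds flipping of a recombination array, read by NGS. The value is the raw area under the fraction-flipped curve over 0-4 h after rhamnose induction (AUC4h), with ≥20 reads per time point. It is not background-subtracted; inactive controls average about 0.047.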
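Also: Bxb1 expression induced with 0.2% (w/v) L-rhamnose at OD600 near 0.5, cultures sampled hourly, flipped fraction per protease–substrate barcode pair counted by paired-end Illumina sequencing.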

Variant | area with substrate ENAYFQS | area with substrate ENCYFQS | area with substrate ENDYFQS | area with substrate ENEYFQS | area with substrate ENFYFQS | area with substrate ENGYFQS | area with substrate ENHYFQS | area with substrate ENIYFQS | area with substrate ENKYFQS | area with substrate ENMYFQS | area with substrate ENPYFQS | area with substrate ENQYFQS | area with substrate ENRYFQS | area with substrate ENTYFQS | area with substrate ENVYFQS | area with substrate ENNYFQS | area with substrate ENSYFQS | area with substrate ENYYFQS | area with substrate ENWYFQS
MGESLFKGPRDYNPISSSICHLTNESDGHTTQLYGIGFGPFIITNKHLFRRNNGTLVVQSLHGVFKVKDTTTLQQHLVDGRDMIIIRMPKDFPPFPQKLKFREPQREERICLVTTNFQTKSMSSMVSDTSCTFPSGDGIFWKHWIQTKDGQCGSPLVSTRDGFIVGIHSASNFTNTNNYFTSVPKNFMELLTNQEAQQWVSGWRLNADSVLWGGHKVFMVKPEEPFQPVKEATQL [S32Q] | 0.0477 | 0.0615 | 0.0549 | 0.0559 | 0.0463 | 0.0625 | 0.0625 | 0.0782 | 0.0468 | 0.101 | 0.0698 | 0.0609 | 0.0758 | 0.0525 | 0.0154 | – | – | – | –
MGESLFKGPRDYNPISSSICHLTNESDGHTTRLYGIGFGPFIITNKHLFRRNNGTLVVQSLHGVFKVKDTTTLQQHLVDGRDMIIIRMPKDFPPFPQKLKFREPQREERICLVTTNFQTKSMSSMVSDTSCTFPSGDGIFWKHWIQTKDGQCGSPLVSTRDGFIVGIHSASNFTNTNNYFTSVPKNFMELLTNQEAQQWVSGWRLNADSVLWGGHKVFMVKPEEPFQPVKEATQL [S32R] | 0.0617 | 0.0663 | 0.0626 | 0.064 | 0.0701 | 0.0599 | 0.0725 | 0.0942 | 0.0859 | – | 0.0639 | 0.0557 | – | 0.0667 | 0.0748 | 0.0649 | 0.0595 | 0.0497 | –
MGESLFKGPRDYNPISSSICHLTNESDGHTTWLYGIGFGPFIITNKHLFRRNNGTLVVQSLHGVFKVKDTTTLQQHLVDGRDMIIIRMPKDFPPFPQKLKFREPQREERICLVTTNFQTKSMSSMVSDTSCTFPSGDGIFWKHWIQTKDGQCGSPLVSTRDGFIVGIHSASNFTNTNNYFTSVPKNFMELLTNQEAQQWVSGWRLNADSVLWGGHKVFMVKPEEPFQPVKEATQL [S32W] | 0.0551 | 0.0599 | 0.0606 | 0.0457 | – | – | 0.0738 | 0.11 | – | 0.0884 | 0.0518 | 0.0534 | 0.0605 | 0.0681 | 0.0679 | 0.0705 | 0.0584 | 0.0577 | –
MGESLFKGPRDYNPISSSICHLTNESDGHTTYLYGIGFGPFIITNKHLFRRNNGTLVVQSLHGVFKVKDTTTLQQHLVDGRDMIIIRMPKDFPPFPQKLKFREPQREERICLVTTNFQTKSMSSMVSDTSCTFPSGDGIFWKHWIQTKDGQCGSPLVSTRDGFIVGIHSASNFTNTNNYFTSVPKNFMELLTNQEAQQWVSGWRLNADSVLWGGHKVFMVKPEEPFQPVKEATQL [S32Y] | 0.0537 | 0.0587 | 0.057 | 0.0609 | – | 0.0663 | 0.0533 | 0.112 | 0.058 | – | 0.0523 | 0.057 | – | 0.0665 | 0.0841 | – | 0.0612 | – | 0.0051
MGESLFKGPRDYNPISSSICHLTNESDGHTTMLYGIGFGPFIITNKHLFRRNNGTLVVQSLHGVFKVKDTTTLQQHLVDGRDMIIIRMPKDFPPFPQKLKFREPQREERICLVTTNFQTKSMSSMVSDTSCTFPSGDGIFWKHWIQTKDGQCGSPLVSTRDGFIVGIHSASNFTNTNNYFTSVPKNFMELLTNQEAQQWVSGWRLNADSVLWGGHKVFMVKPEEPFQPVKEATQL [S32M] | 0.0924 | 0.0719 | 0.0665 | 0.0678 | – | – | – | – | – | – | 0.0588 | 0.0467 | – | 0.0621 | – | 0.073 | 0.0443 | 0.0544 | –
MGESLFKGPRDYNPISSSICHLTNESDGHTTLLYGIGFGPFIITNKHLFRRNNGTLVVQSLHGVFKVKDTTTLQQHLVDGRDMIIIRMPKDFPPFPQKLKFREPQREERICLVTTNFQTKSMSSMVSDTSCTFPSGDGIFWKHWIQTKDGQCGSPLVSTRDGFIVGIHSASNFTNTNNYFTSVPKNFMELLTNQEAQQWVSGWRLNADSVLWGGHKVFMVKPEEPFQPVKEATQL [S32L] | 0.0568 | 0.0598 | 0.0593 | 0.0424 | 0.0559 | – | 0.0523 | 0.12 | 0.0906 | – | 0.0515 | – | – | 0.0472 | 0.0826 | 0.0681 | 0.0623 | 0.0508 | –
MGESLFKGPRDYNPISSSICHLTNESDGHTTGLYGIGFGPFIITNKHLFRRNNGTLVVQSLHGVFKVKDTTTLQQHLVDGRDMIIIRMPKDFPPFPQKLKFREPQREERICLVTTNFQTKSMSSMVSDTSCTFPSGDGIFWKHWIQTKDGQCGSPLVSTRDGFIVGIHSASNFTNTNNYFTSVPKNFMELLTNQEAQQWVSGWRLNADSVLWGGHKVFMVKPEEPFQPVKEATQL [S32G] | 0.0537 | 0.0634 | 0.0578 | 0.0549 | 0.0404 | – | – | – | – | 0.0602 | – | 0.0646 | 0.05 | 0.0537 | 0.0688 | 0.0793 | 0.0541 | 0.0368 | 0.0566
MGESLFKGPRDYNPISSSICHLTNESDGHTTDLYGIGFGPFIITNKHLFRRNNGTLVVQSLHGVFKVKDTTTLQQHLVDGRDMIIIRMPKDFPPFPQKLKFREPQREERICLVTTNFQTKSMSSMVSDTSCTFPSGDGIFWKHWIQTKDGQCGSPLVSTRDGFIVGIHSASNFTNTNNYFTSVPKNFMELLTNQEAQQWVSGWRLNADSVLWGGHKVFMVKPEEPFQPVKEATQL [S32D] | 0.0542 | 0.0568 | 0.0594 | – | 0.056 | – | – | 0.0839 | 0.056 | – | 0.0568 | 0.0606 | 0.0576 | 0.0565 | 0.0643 | 0.0529 | 0.0622 | 0.0603 | –
MGESLFKGPRDYNPISSSICHLTNESDGHTTPLYGIGFGPFIITNKHLFRRNNGTLVVQSLHGVFKVKDTTTLQQHLVDGRDMIIIRMPKDFPPFPQKLKFREPQREERICLVTTNFQTKSMSSMVSDTSCTFPSGDGIFWKHWIQTKDGQCGSPLVSTRDGFIVGIHSASNFTNTNNYFTSVPKNFMELLTNQEAQQWVSGWRLNADSVLWGGHKVFMVKPEEPFQPVKEATQL [S32P] | 0.0652 | 0.0557 | 0.0608 | 0.0571 | 0.0564 | – | 0.0498 | – | 0.0543 | 0.0701 | 0.0488 | 0.0542 | – | 0.0632 | 0.0589 | 0.0554 | 0.0593 | 0.0525 | –
